From PubChem BioAssay AID463173 (ICCB-Longwood Screening Facility, Harvard Medical School, 2010) come the findings set out here.

About 1,700 (3.3%) of roughly 52,000 compounds were called active. Cut-off read from the data, not from the text of the source: active = survival mostly below about 52% (no sharp cut-off); inactive = mostly above about 56%. Some of the results follow.

The test deals with Wild type. The experiment in a line: growth inhibition of S. aureus wild type versus tarO mutant, primary screen, teichoic acid synthesis inhibitors, RN4220, OD600 (AID 463173). Conditions: S. aureus RN4220 wild type/DeltatarO growth, OD600, 18 h, active compounds read low, screened at 18.75 µg/mL (by protocol).
`CCOC(=O)c1cccc(NC(=O)C(CC(C)C)N2Cc3ccccc3C2=O)c1` (centres undefined): the survival is inactive: 121%. The value for `CS(=O)(=O)N(CC(=O)N1CCCCC1)Cc1ccccc1` was inactive: 106%.

`CCC(=O)N1CCc2cc(Br)cc(S(=O)(=O)N3CCCC(C(=O)Nc4ccc(OC)c(Cl)c4)C3)c21` (centres undefined): the survival is inactive: 106%.

Turning to `COc1ccc(OC)c(CNC(=O)CCCn2ccc3cc(S(=O)(=O)N4CCCC4)ccc32)c1`, the survival was inactive: 85%.

As to `CCNc1nc(NCC)nc(N(C)N)n1`, the survival is inactive: 98%. Regarding `COc1cc(-c2noc(-c3ccc(NCc4cccnc4)c([N+](=O)[O-])c3)n2)cc(OC)c1OC`, the survival was inactive: 122%. Then `CCn1c2ccccc2c2nnc(SCCN3CCCCC3)nc21`, with inactive: 62%; and `N#C/C(=C/c1cn(Cc2ccc(F)cc2)c2ccccc12)C(=O)Nc1cccc(Cl)c1`, with inactive: 85%; and `COC(=O)CC1c2cc(OC)c(OC)cc2CCN1C(=O)Nc1ccc(C)cc1Cl` (centres undefined), with inactive: 105%. With `COc1ccccc1Nc1nn2c(=O)c3ccc(C(=O)NCCCOC(C)C)cc3nc2s1`, the survival is inactive: 83%.

In the case of `C=CCNC(=O)Cn1nc(-c2ccccc2F)ccc1=O`, the survival was inactive: 101%. Turning to `CCOc1ccc(CNC(=O)CCC(=O)N2CC(C)Sc3ccccc32)cc1` (centres undefined), the survival is inactive: 80%.

For `CCCc1cc(=O)[nH]c(Nc2ccc(C(=O)O)cc2)n1`, the survival is inactive: 85%. As to `CCOc1ccc(CCNC(=O)CCCn2nc(C)c3sc4ccccc4c3c2=O)cc1OCC`, the survival was inactive: 108%. In the case of `O=C(CSc1nccn1-c1ccccc1)Nc1nc2ccccc2s1`, the survival is inactive: 95%.

`CCC1CN(C(=O)N2CCC(C(=O)NCCN(C)C)CC2)c2ccccc2O1` (centres undefined): the survival is inactive: 85%.

On to `Cn1ccc2cc(S(=O)(=O)N3CCCN(C(=O)Nc4ccccc4Br)CC3)ccc21`, for which the survival is inactive: 93%. On to `CCOc1ccc(OCC)c(NC(=O)Cn2ncc3c4ccccc4n(Cc4ccccc4)c3c2=O)c1`, for which the survival is inactive: 89%. Then `CCc1ccc(CNC(=O)c2cccc(-n3cnc4cccnc43)c2C)cc1`, with inactive: 69%; and `Cc1ccc(NC(=O)c2cnc(SCC(=O)N3CCOCC3)n(C)c2=O)cc1`, with inactive: 60%.

Consider `CCOc1ccccc1NC(=O)CC1SC(=N)N(c2ccccc2)C1=O` (centres undefined), for which the survival was inactive: 111%.

In the case of `COc1ccc(C)cc1N(C)C(=O)c1c(C)oc2ncnc(N3CCOCC3)c12`, the survival is inactive: 72%.

As to `COc1cccc(NC(=O)CN(C)S(=O)(=O)c2ccc3nc(C)sc3c2)c1`, the survival was inactive: 66%. Turning to `COc1ccc(NC(=O)/C(C#N)=C/C=C/c2ccco2)cc1`, the survival was inactive: 111%. As to `CC1CC2(NC(=O)NC2=O)C(C)CN1C` (centres undefined), the survival was inactive: 107%. As for `CN(c1ccc(Cl)cc1)S(=O)(=O)c1nnc(NC(=O)C2CCCCC2)s1`, the survival was inactive: 109%.

Regarding `COc1cc(C(=O)Oc2c(Sc3ccc(C)cc3)c(C)nn2-c2ccccc2)cc(OC)c1OC`, the survival is inactive: 111%. Regarding `COC(=O)c1c(C)sc(-c2c(-c3ccc4c(c3)OCCO4)[nH]c3c2c(=O)n(C)c(=O)n3C)c1O`, the survival was inactive: 81%. On to `O=C1c2ccccc2C(=O)N1CC(O)COC1CCCCC1` (centres undefined), for which the survival is inactive: 114%.

With `CCNC(=O)c1cnc2sc(N3CCCCCC3)nn2c1=O`, the survival was inactive: 68%. As for `Nc1ccc(C(=O)N2CCCC2)cc1`, the survival is inactive: 104%. For `CCOc1ccccc1NC(=O)c1c(NC(=O)c2ccccc2C)sc2c1CCC(C)C2` (centres undefined), the survival was inactive: 75%. Take `Nc1nnc(SCC(=O)Nc2ccccc2C(F)(F)F)s1`: the survival is inactive: 140%. For the compound `Cc1cccc(Nc2cc(=O)[nH]c(=O)[nH]2)c1`, the survival was inactive: 122%. As for `COC(=O)c1n[nH]n(-c2ccccc2)c1=O`, the survival is inactive: 79%. `CCC(C)NC(=O)c1cnn(-c2ccc(Cl)cc2)c1C1CCN(C(=O)OC(C)(C)C)CC1` (centres undefined): the survival is inactive: 77%. For the compound `O=C(NCCc1ccc(Cl)cc1)c1ccc(CS(=O)Cc2cccc(Cl)c2)o1` (centres undefined), the survival is inactive: 30%.

Take `CN(C1CCCCC1)S(=O)(=O)c1ccc2c(c1)c(=O)c(C(=O)NCCc1ccccc1)cn2C`: the survival was inactive: 84%. Turning to `Cc1ccn2c(Nc3ccc4c(c3)OCCO4)c(-c3ccc(Cl)s3)nc2c1`, the survival was inactive: 75%. The value for `Cc1cccc(NC(=O)C2CCCN(S(=O)(=O)c3cnc[nH]3)C2)c1C` (centres undefined) was inactive: 86%; that for `Cc1ccc2c(c1)cc(C(=O)Nc1ccc(F)cc1F)n2C` was inactive: 121%. With `O=C1Cc2ccccc2CC(=O)N1`, the survival is inactive: 108%.

Turning to `CC(=O)NC(NC(C)=O)C(=O)c1ccccc1`, the survival was inactive: 105%.

Take `O=C(Cn1cc(/C=C2\SC(=S)NC2=O)c2ccccc21)NCc1ccco1`: the survival is inactive: 107%. Turning to `Cc1oc(-c2ccc(C(=O)Nc3cc(F)ccc3F)cc2)nc1COc1ccccc1`, the survival is inactive: 89%.

As for `CCOC(=O)c1cc(NC(=O)c2ccc(F)cc2)c(=O)n2c1oc1ccccc12`, the survival is inactive: 86%. Take `Cc1ccc(C(=O)N(Cc2ccc(N(C)C)cc2)Cc2ccco2)cc1`: the survival was inactive: 83%.

With `Cn1c(=O)c2cc(C(=O)N3CCN(c4ccc(Cl)cc4)CC3)sc2c2ccccc21`, the survival was inactive: 68%. Then `CCN(CC)c1nn2c(=O)c(C(=O)NCc3ccc(F)cc3)cnc2s1`, with inactive: 73%. In the case of `CCCn1c2ccccc2c2cnn(CC(=O)NCCc3ccc(OC)cc3OC)c(=O)c21`, the survival is inactive: 72%. The value for `CCNC(=O)Cc1ccc(NC(=O)N2CCCCc3ccccc32)cc1` was inactive: 81%. For `Cc1nc(-c2ccccc2)sc1CCNS(=O)(=O)c1ccc(Br)cc1`, the survival was inactive: 123%.

Turning to `COc1ccc(CNC(=O)C(c2cccs2)N(Cc2cccs2)C(=O)Cc2cccs2)cc1` (centres undefined), the survival is inactive: 116%.

In the case of `CCn1nc(C)c(CCN(C)C(=O)Nc2cc(Cl)ccc2C)c1C`, the survival is inactive: 87%. In the case of `Cc1ccc(CNC(=O)CCS(=O)(=O)c2cc(Br)cc3c2N(C(=O)C2CC2)CC3)cc1`, the survival is inactive: 136%. Then `O=C(Nc1ccc(Cl)cc1)N1CCN(c2ccc3nnc(-c4ccc(F)cc4)n3n2)CC1`, with inactive: 93%; and `Cc1ccc(-n2nc(CO)c(C(=O)NCc3cccs3)n2)cc1`, with inactive: 91%. Then `O=C(O)CSc1ccc(Oc2ccc(SCC(=O)O)cc2)cc1`, with inactive: 105%. Then `Cc1cc(C)c(S(=O)(=O)NCC(c2cccs2)S(=O)(=O)c2ccccc2)c(C)c1` (centres undefined), with inactive: 148%.
